# Measured values from PubChem BioAssay AID1030 (National Center for Advancing Translational Sciences (NCATS), 2008).
# The campaign covered roughly 220,000 compounds. About 16,000 (7.3%) were called active. Inconclusive results, whose numbers are uncertain, are shown with a selection of clear calls. Calls follow the shape of the dose curve; as a rule, active = well fitted inhibition curve with a large enough effect (not every such curve was filed as active); inconclusive = small, poorly fitted or top-dose-only effect, or another doubt; inactive = no such curve, though single readings can be large or run the other way. No potency is given beside an inconclusive call; the fits are too rough.
# Biological target: Aldehyde dehydrogenase 1A1 (Homo sapiens) (UniProt P00352)
# Assay: qHTS Assay for Inhibitors of Aldehyde Dehydrogenase 1 (ALDH1A1);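 as to activity, negative = inhibition: plate controls were no enzyme wells and a reference inhibitor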
# Conditions: Purified ALDH1A1, NADH fluorescence, propionaldehyde substrate; series mostly up to 75.3 µM
# Potency is read from the fitted curve at half-maximal effect; tags tell the direction and shape of the fitted curve.
# Sequence of UniProt P00352 (P00352 whole entry, looked up): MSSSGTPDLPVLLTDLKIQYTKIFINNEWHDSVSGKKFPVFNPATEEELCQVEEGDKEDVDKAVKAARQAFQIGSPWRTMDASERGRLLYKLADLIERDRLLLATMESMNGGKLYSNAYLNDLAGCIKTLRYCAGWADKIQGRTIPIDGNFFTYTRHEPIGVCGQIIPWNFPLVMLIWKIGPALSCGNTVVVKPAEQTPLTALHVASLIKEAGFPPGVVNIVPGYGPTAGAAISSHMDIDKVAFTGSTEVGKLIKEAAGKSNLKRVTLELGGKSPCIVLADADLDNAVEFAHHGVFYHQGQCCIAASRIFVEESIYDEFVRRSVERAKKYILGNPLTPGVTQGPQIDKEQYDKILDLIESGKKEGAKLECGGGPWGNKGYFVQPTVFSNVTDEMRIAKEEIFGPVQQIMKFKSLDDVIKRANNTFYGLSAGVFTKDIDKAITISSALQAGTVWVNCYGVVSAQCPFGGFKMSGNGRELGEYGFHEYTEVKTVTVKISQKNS
SMILES,Potency,"activity, negative = inhibition"
Cc1ccc(Nc2nc(N)c([N+](=O)[O-])c(N3CCOCC3)n2)cc1C,"inconclusive [inhibitor, single point]",
O=c1cc2c(nn1Cc1cccc(Cl)c1)-c1ccccc1CC2,"inconclusive [inhibitor, single point]",
CCn1c2ccccc2c2cc(CN3CCN(S(=O)(=O)Cc4ccccc4)CC3)ccc21,"inconclusive [inhibitor, single point]",
CC(C)(C)C(=O)NC(NC(=S)Nc1sc2c(c1C#N)CCCC2)C(Cl)(Cl)Cl (stereo not given),active: 6.31 µM,
CC(=O)C1CCC2C3CCC4=CC(=O)CC[C@]4(C)[C@@]3(F)C(O)C[C@]12C (stereo not given in full),inactive,
COC(=O)c1ccc(N2C(=O)Nc3ccccc3N2O)cc1,inactive,
CC(C)C1OC2(C)OC(=N)C1(C#N)C(C#N)(C#N)C2c1ccccc1 (stereo not given),"inconclusive [inhibitor, partial curve]",
COc1cc(C=C2C(=O)c3ccccc3C2=O)cc(OC)c1OC,active: 1.58 µM,
CNc1ccc(Br)cc(C(=O)/C=C/c2ccc(OC)cc2)c1=O,active: 28.2 µM,
COc1cccc(C(=O)Nc2cccc3c2ccc2cccn23)c1,inactive,
NC(=O)c1cccc2c(=O)oc3ccccc3c12,"inconclusive [inhibitor, single point]",
CCOc1cc(/C=C/C(=O)OCC(=O)NC2CCS(=O)(=O)C2)ccc1OCc1ccccc1 (stereo not given),"inconclusive [inhibitor, single point]",
COc1ccc(N2CCN(C(=O)C3CC(O)CN3S(=O)(=O)c3ccc([N+](=O)[O-])cc3)CC2)cc1 (stereo not given),inactive,
COc1ccc(S(=O)(=O)NNC(N)=S)cc1,"inconclusive [inhibitor, single point]",
CC#CCN1c2ccccc2[C@]23C[C@@H](C(=O)OC)N(C(=O)C4CCC4)C2=NC(C(=O)OC)=C(C(=O)OC)[C@H]13,,inactive: 5.05% [at 13.5 µM]
CC(=O)c1cc2c(cc1NC(=O)CCn1cccc1)OCO2,active: 31.6 µM,
O=C(NCc1nnc2c3ccccc3c(-c3ccccc3)nn12)c1ccc(Cl)cc1,inactive,
Brc1c(OCCOCCn2cncn2)ccc2ccccc12,inactive,
O=[N+]([O-])c1ccc2c(c1)C(N1CCOCC1)/C(=C/COc1ccc(F)cc1)O2 (stereo not given),"inconclusive [inhibitor, single point]",
Cc1c(C(=O)NCc2ccccc2)oc2ccc(S(=O)(=O)N3CCCC3)cc12,"inconclusive [inhibitor, single point]",
